A lower IC50 marks a more sensitive line; fits outside the tested doses are given as limits. AUC is the area under the same curve over the 256-fold range up to the top dose, as a fraction; the more sensitive the line, the further below 1. Where the top dose is marked as inferred, it comes from the curve model; the source does not state it.
Experiments:
Test in all cases: Viability of human cancer cell lines after 72 h of drug (GDSC screen)
CCT007093 = compound: O=C1/C(=C/c2cccs2)CC/C1=C\c1cccs1 [CCT007093]; details: top dose 6.6 µM; top dose inferred
Description: (§1)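 Human cancer cell lines in 384-well plates, medium with 10% serum, drug for 72 h over a 256-fold dose range (nine 2-fold or five 4-fold steps up to the top dose). Adherent lines were fixed and stained with the nucleic acid dye Syto60, suspension lines read with resazurin; signal relative to control wells, capped at 0 and 100%. One two-parameter sigmoid per drug and line, fitted in a mixed model over all curves with the slope shared within a line.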

BAY 61-3606 = compound: COc1ccc(-c2cc3nccn3c(Nc3ncccc3C(N)=O)n2)cc1OC [BAY 61-3606]; details: top dose 8 µM; top dose inferred
Description: as §1

KIN001-266 = compound: CCN1CCC(n2cc(CNc3cc(Cl)c4ncc(C#N)c(Nc5ccc(F)c(Cl)c5)c4c3)nn2)CC1 [KIN001-266]; details: top dose 20 µM; top dose inferred
Description: as §1

QL-XII-47 = compound: C=CC(=O)N1CCc2ccc(-n3c(=O)ccc4cnc5ccc(-c6cnn(C)c6)cc5c43)cc21 [QL-XII-47]; details: top dose 10.24 µM; top dose inferred
Description: as §1

| Cell Line | AUC (CCT007093) | IC50 (CCT007093) [µM] | AUC (BAY 61-3606) | IC50 (BAY 61-3606) [µM] | AUC (KIN001-266) | IC50 (KIN001-266) [µM] | AUC (QL-XII-47) | IC50 (QL-XII-47) [µM] |
| --- | --- | --- | --- | --- | --- | --- | --- | --- |
| T-T (oesophagus, adherent) | 0.968 | > 6.6 | 0.599 | 0.934 | 0.85 | 15.1 | 0.986 | > 10.2 |
| HLE (liver, adherent) | 0.975 | > 6.6 | 0.745 | 2.39 | 0.869 | 16.7 | 0.989 | > 10.2 |
| LCLC-103H (large cell lung carcinoma, adherent) | 0.99 | > 6.6 | 0.771 | 2.78 | 0.877 | 16.9 | 0.806 | 4.63 |
| LS-411N (large intestine, adherent) | 0.974 | > 6.6 | 0.767 | 3.62 | 0.867 | > 20 | 0.595 | 1.24 |
| MC-CAR (haematopoietic neoplasm, suspension) | 0.968 | > 6.6 | 0.635 | 1.13 | 0.849 | 12.7 | 0.477 | 0.557 |
| D-263MG (glioma, adherent) | 0.966 | > 6.6 | 0.964 | > 8 | 0.974 | > 20 | 0.983 | > 10.2 |
| EW-18 (Ewing sarcoma, suspension) | 0.984 | > 6.6 | 0.807 | 4.44 | 0.873 | > 20 | 0.72 | 2.82 |
| EoL-1-cell (haematopoietic neoplasm, suspension) | 0.941 | > 6.6 | 0.433 | 0.335 | 0.852 | 12.7 | 0.779 | 3.69 |
| NAMALWA (Burkitt lymphoma, suspension) | 0.991 | > 6.6 | 0.88 | 6.04 | 0.888 | 16.4 | 0.516 | 0.704 |
| G-401 (kidney, adherent) | 0.973 | > 6.6 | 0.78 | 3.64 | 0.795 | 10.3 | 0.69 | 2.3 |
| Hs633T (fibrosarcoma, adherent) | 0.992 | > 6.6 | 0.71 | 1.72 | 0.864 | 12.5 | 0.563 | 0.919 |
| PC-3 (prostate, adherent) | 0.98 | > 6.6 | 0.983 | > 8 | 0.667 | 4.06 | 0.72 | 3.13 |
| FU-OV-1 (ovary, adherent) | 0.914 | > 6.6 | 0.733 | 2.89 | 0.874 | > 20 | 0.834 | 9.81 |
| HCC1954 (breast, adherent) | 0.975 | > 6.6 | 0.952 | > 8 | 0.944 | > 20 | 0.366 | 0.257 |
| CPC-N (small cell lung carcinoma, suspension) | 0.983 | > 6.6 | 0.891 | > 8 | 0.911 | > 20 | 0.929 | > 10.2 |
| RO82-W-1 (thyroid, adherent) | 0.966 | > 6.6 | 0.87 | > 8 | 0.892 | > 20 | 0.968 | > 10.2 |
| HCC-56 (large intestine, adherent) | 0.987 | > 6.6 | 0.834 | 5.41 | 0.877 | > 20 | 0.878 | > 10.2 |
| JHU-022 (head and neck, adherent) | 0.966 | > 6.6 | 0.982 | > 8 | 0.981 | > 20 | 0.893 | > 10.2 |
| OV-90 (ovary, adherent) | 0.977 | > 6.6 | 0.894 | > 8 | 0.892 | > 20 | 0.81 | 7.33 |
| PCI-38 (head and neck, adherent) | 0.906 | > 6.6 | 0.906 | > 8 | 0.871 | 19 | 0.913 | > 10.2 |
| HCC2157 (breast, suspension) | 0.986 | > 6.6 | 0.883 | > 8 | 0.973 | > 20 | 0.923 | > 10.2 |
| 697 (lymphoblastic leukaemia, suspension) | 0.989 | > 6.6 | 0.53 | 0.594 | 0.868 | 12.4 | 0.456 | 0.498 |
| G-402 (soft tissue, adherent) | 0.947 | > 6.6 | 0.77 | 4.08 | 0.867 | > 20 | 0.705 | 2.96 |
| LB1047-RCC (kidney, adherent) | 0.981 | > 6.6 | 0.557 | 0.73 | 0.879 | > 20 | 0.624 | 1.47 |
| HSC-4 (head and neck, adherent) | 0.84 | > 6.6 | 0.872 | > 8 | 0.849 | > 20 | 0.787 | 6.12 |
| KYSE-520 (oesophagus, adherent) | 0.947 | > 6.6 | 0.957 | > 8 | 0.931 | > 20 | 0.599 | 1.32 |
